Assay results taken from article PMC4552016, “The Rsb Phosphoregulatory Network Controls Availability of the Primary Sigma Factor in Chlamydia trachomatis and Influences the Kinetics of Growth and Development” (PLoS Pathogens, 2015).
Results are given in words; binding and its absence hold for the method and conditions named. Some binding calls cover weakened binding; strength is not graded here. For some of these results: Sequences can lack the tags named with a protein. Blank lines part the entries; values can stand above or below the binder they belong to.

Key:
[1] = target: T1, σ^28 (C. trachomatis alternative sigma factor), BACTH fusion (Chlamydia trachomatis) (UniProt O84064); assay: two-hybrid; bacterial adenylate cyclase two-hybrid (BACTH, EuroMedex) in DHM1 E. coli; cAMP-dependent lacZ reporter read by Miller assay; σ66 with RsbWCt in both cloning permutations
T1 sequence: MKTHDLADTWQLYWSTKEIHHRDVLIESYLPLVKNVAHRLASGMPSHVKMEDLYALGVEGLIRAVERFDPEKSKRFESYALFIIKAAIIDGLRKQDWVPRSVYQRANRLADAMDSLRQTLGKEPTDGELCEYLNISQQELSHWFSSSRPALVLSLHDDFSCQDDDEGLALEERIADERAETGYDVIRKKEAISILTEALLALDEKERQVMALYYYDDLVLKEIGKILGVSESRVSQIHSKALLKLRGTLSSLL

[2] = target: T2, σ^66 (C. trachomatis primary sigma factor), BACTH fusion (Chlamydia trachomatis) (UniProt P18333); assay: as above
T2 sequence: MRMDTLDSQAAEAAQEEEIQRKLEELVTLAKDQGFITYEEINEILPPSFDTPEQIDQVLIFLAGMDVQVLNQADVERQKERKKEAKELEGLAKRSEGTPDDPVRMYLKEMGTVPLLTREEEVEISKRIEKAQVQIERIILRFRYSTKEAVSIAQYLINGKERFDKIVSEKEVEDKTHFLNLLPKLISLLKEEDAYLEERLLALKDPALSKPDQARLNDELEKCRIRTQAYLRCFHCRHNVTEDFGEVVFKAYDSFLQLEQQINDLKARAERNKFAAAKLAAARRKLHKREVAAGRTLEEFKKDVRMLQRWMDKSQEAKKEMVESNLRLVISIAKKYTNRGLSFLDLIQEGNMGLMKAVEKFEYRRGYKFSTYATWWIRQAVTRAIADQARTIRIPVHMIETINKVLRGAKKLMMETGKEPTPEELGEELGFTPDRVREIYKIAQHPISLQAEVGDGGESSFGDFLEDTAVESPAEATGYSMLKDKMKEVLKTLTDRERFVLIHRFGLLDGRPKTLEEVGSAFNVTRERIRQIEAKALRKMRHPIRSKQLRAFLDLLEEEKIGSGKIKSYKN

[3] = target: T3, σ^54 (C. trachomatis alternative sigma factor), BACTH fusion (Chlamydia trachomatis) (UniProt O84615); assay: as above
T3 sequence: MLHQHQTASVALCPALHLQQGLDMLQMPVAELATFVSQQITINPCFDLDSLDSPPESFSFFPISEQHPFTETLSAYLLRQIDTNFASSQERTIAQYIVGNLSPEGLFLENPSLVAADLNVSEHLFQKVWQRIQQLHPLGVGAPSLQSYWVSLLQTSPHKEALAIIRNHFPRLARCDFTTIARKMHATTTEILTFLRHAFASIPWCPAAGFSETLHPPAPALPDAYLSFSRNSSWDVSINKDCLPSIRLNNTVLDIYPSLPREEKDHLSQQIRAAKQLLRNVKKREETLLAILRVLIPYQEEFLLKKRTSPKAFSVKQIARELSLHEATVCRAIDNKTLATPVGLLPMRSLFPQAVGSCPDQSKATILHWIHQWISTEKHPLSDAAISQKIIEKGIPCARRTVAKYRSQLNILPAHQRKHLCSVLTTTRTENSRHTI

[4] = target: T4, σ^54, recombinant purified, amine-coupled SPR ligand (Chlamydia trachomatis) (UniProt O84615); assay: SPR; Biacore 3000, CM5 chip; σ66, σ28 and σ54 amine-coupled to consecutive flow cells, RsbWCt analyte at various concentrations; reference flow cell with immobilized GST; Req as percent of theoretical Rmax; 10mM HEPES, 150mM NaCl, 1mM MgCl2, 30°C; both purified
T4 sequence: T3 sequence

[5] = target: T5, σ^28, recombinant purified, amine-coupled SPR ligand (Chlamydia trachomatis) (UniProt O84064); assay: as above
T5 sequence: T1 sequence

[6] = target: T6, σ^B (B. subtilis sigma factor B), BACTH fusion (Bacillus subtilis) (UniProt P06574); assay: two-hybrid; bacterial adenylate cyclase two-hybrid (BACTH, EuroMedex) in DHM1 E. coli; cAMP-dependent lacZ reporter read by Miller assay; σ66 with RsbWCt in both cloning permutations
T6 sequence: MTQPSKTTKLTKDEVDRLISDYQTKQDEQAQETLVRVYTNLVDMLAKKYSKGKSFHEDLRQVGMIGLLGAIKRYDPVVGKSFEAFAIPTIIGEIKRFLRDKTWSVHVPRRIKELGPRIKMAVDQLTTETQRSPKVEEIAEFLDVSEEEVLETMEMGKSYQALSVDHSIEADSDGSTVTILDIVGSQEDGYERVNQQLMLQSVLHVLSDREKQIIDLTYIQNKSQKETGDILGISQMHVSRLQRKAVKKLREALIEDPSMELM

B3: RsbWBs (B. subtilis anti-sigma factor RsbW), BACTH fusion (protein, UniProt P17904 1-160)
chain: MKNNADYIEMKVPAQPEYVGIIRLTLSGVASRMGYTYDEIEDLKIAVSEACTNAVQHAYKEDKNGEVSIRFGVFEDRLEVIVADEGDSFDFDQKQQDLGPYTPSHTVDQLSEGGLGLYLMETLMDEVRVQNHSGVTVAMTKYLNGERVDHDTTIKNYETN
- binding [6]: binds

B4: RsbTBs (B. subtilis RsbT, paralogue of RsbWBs), BACTH fusion (protein, UniProt P42411 1-133)
chain: MNDQSCVRIMTEWDIVAARQLGRNVAKELGFGTVDQARITTAISELARNIYLYAGKGQIGIEQVADRGKKGLKIIAEDQGPGIPDIRKVMEDGFSTSGGLGAGLPGVKRLMDEFSLNSVAGEGTEIQAIKWLR
- binding [6]: no binding

The next lines start with the values.

- binding [1]: no binding
- binding [2]: binds
- binding [3]: no binding
B1: RsbWCt (C. trachomatis switch-protein kinase analogue RsbW), BACTH fusion (protein, UniProt O84553 1-146)
chain: MTFSEGEQVFPATLQDLYPMLDFVKRAGVHCNCTQKKLSKLELACEELLLNIITHAYKGLPSTGWIRILCTETPDALLVRITDHGPAFNPITASPDIMRLDLPIEQRRIGGLGIFLAKYSVDVFDYERVNDTNVVTLTLYTKPHNS

- binding [4]: no binding
- binding [5]: no binding
B2: RsbWCt, recombinant purified (SPR analyte) (natural protein, Chlamydia trachomatis, UniProt O84553 1-146, looked up)
chain: B1 chain
notes: RsbW of Chlamydia trachomatis, cloned from serovar D/UW/CX genomic DNA; also called CT549; source: PC2 E. coli, pGEX-derived vector, purified
